Experimental data taken from PubChem BioAssay AID504374 (National Center for Advancing Translational Sciences (NCATS), 2011).
Values joined by “and” are separate entries in the source; they are usually repeats but may differ in a detail not shown here. Equal entries are not always repeated. Among all 1,500 compounds or so, about 100 (6.7%) were called active. Another 7% or so got no clear call; they are omitted. The call rests on the fitted dose curve; in most records, active means well fitted inhibition curve with a large enough effect; inconclusive means small, poorly fitted or top-dose-only effect, or effect the other way; inactive means flat fitted curve, though single readings scatter. This is one part of the list. Peptide text beside a SMILES is read from it. * marks the point of attachment. OBn = c1ccc(CO*)cc1

These molecules were tested against Runt-related transcription factor 1 (Homo sapiens) + Core-binding factor subunit beta (Homo sapiens) (UniProt Q01196+Q13951) (assay: qHTS Assay for Compounds Blocking the Interaction Between CBF-beta and RUNX1 for the Treatment of Acute Myeloid Leukemia: Hit Validation). Conditions: AlphaScreen CBFb-His/RUNX1-biotin binding; series mostly up to 59.8 µM; activity, negative = inhibition: at the top concentration.
Chain of UniProt Q01196 (Q01196 whole entry, looked up): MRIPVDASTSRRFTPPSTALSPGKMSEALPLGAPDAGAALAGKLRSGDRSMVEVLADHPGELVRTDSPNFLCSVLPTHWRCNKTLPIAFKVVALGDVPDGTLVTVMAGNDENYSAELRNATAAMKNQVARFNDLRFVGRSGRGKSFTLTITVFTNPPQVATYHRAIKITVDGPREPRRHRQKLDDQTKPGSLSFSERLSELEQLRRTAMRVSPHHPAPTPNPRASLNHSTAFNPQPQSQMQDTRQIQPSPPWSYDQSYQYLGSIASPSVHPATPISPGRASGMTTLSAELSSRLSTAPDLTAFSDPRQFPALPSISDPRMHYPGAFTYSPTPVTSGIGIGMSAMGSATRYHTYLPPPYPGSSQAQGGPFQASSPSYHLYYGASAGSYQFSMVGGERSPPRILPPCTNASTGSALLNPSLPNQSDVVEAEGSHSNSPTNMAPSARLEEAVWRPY
Chain of UniProt Q01196 (Q13951 whole entry, looked up): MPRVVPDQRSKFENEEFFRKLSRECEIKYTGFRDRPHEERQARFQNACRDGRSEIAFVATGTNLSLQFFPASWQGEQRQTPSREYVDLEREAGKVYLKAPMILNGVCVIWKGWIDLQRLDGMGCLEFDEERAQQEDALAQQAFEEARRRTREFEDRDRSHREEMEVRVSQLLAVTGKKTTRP
Method in brief: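 AlphaScreen proximity assay: His-tagged CBF-beta and biotinylated RUNX1 (30 nM each) preincubated 20 min, then compound 15 min, then nickel and streptavidin beads 90 min, all at room temperature; signal read at […]em 440 nm.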
Further: nearly all actives have a fitted effect of over 60% in size.
On the % scale 0 is the no-effect control and ±100 the full control effect; potency means the concentration at half of the fitted maximal effect.

SMILES	activity, negative = inhibition	Potency
CCSc1cc(Cl)nc(N)n1	inactive: 1.54%	
CC(C)(C)c1ccc(/C=N/N2CCN(c3ccccn3)CC2)cc1	inactive: -4.52%	
N/C(CN1CCSCC1)=N\OCc1c(F)cccc1Cl	inactive: -4.68%	
CCC(C)(C)C1CCc2[nH]nc(C(=O)N/N=C(\C)c3ccco3)c2C1 (centres undefined)	inactive: -1.02%	
O=C(NC1CCSC1)c1cccc(Cl)c1 (centres undefined)	inactive: -7.92%	
Clc1nc(Oc2ccccc2)nc(-c2cn(-c3ccccc3)c3ccccc23)n1	inactive: 9.1%	
N#Cc1ccc(-c2cccnc2)nc1SCC(=O)c1ccccc1	inactive: 3.15%	
CC(C)CC(=O)NC(=S)Nc1ccccc1N1CCCC1	inactive: -17.3%	
COc1ccc2nc3cc(Cl)ccc3c(C#N)c2c1	inactive: -4.75%	
Nc1nc(Nc2cccc(Cl)c2)n[nH]1	inactive: 3%	
Cc1ccc(OCC(=O)N(Cc2ccc(N(C)C)cc2)C2CCS(=O)(=O)C2)cc1C (centres undefined)	inactive: -15%	
COCCNc1c2c(nc3c(-c4ccccc4)c(C)nn13)CCC2	inactive: 0.807%	
Cc1cc(C)nc(N2N=C(C(F)(F)F)CC2=O)n1	inactive: 2.96%	
Cc1ccccc1-c1noc(-c2ccccc2C(=O)NCC2CCCO2)n1 (centres undefined)	inactive: -6.51%	
Cc1ccc(Cc2cc(C)n[nH]c2=O)cc1	inactive: 5.27%	
Cc1cc(N2CCN(C(=O)c3ccco3)CC2)c2ccccc2n1	inactive: -5.64%	
CCOC(=O)c1c(NC(=S)NC)sc2c1CCCC2	inactive: -4.61%	
Cc1n[nH]c(C)c1CCC(=O)N/N=C/c1cccs1	inactive: -16.4%	
COCc1cc(=O)n2[nH]c(-c3cccs3)cc2n1	inactive: -6.05%	
Cc1cccn(Cc2c(F)cccc2Cl)c1=O	inactive: 7%	
COc1ccc(C(=O)CSc2nnc3n2CCCN3C(=O)Nc2ccccc2)cc1	inactive: -0.884%	
COc1ccc(NC(=O)CSc2ccc(-c3ccccn3)nn2)cc1OC		active: 4.47 µM
Cn1cc(NC(=O)Nc2ccc(C(F)(F)F)cc2)c(C(F)(F)F)n1	inactive: 8.22%	

SMILES	activity, negative = inhibition	Potency
CCCS(=O)(=O)c1c(S(=O)(=O)CCC)c2cnccn2c1C(=O)c1ccc(OC)cc1	inactive: 7.99%	
c1ccc(-c2ccc(-c3ccccn3)s2)nc1	inactive: 3.74%	
Cc1c(Cl)cccc1NC(=S)N(CCN(C)C)C(C)c1ccccn1 (centres undefined)		active: 4.34 µM
Nc1nc(-c2ccccc2)c(N=Nc2ccccc2Cl)s1		active: 4.34 µM
CC(C)c1nc2oc3c(N(C)CCO)ncnc3c2c2c1CCC2	inactive: -5.62%	
COC(=O)c1scc(C)c1S(=O)(=O)Nc1ccc(C)cc1	inactive: -10.9%	
COc1ccc(CCNc2c3ccccc3nc3ccccc23)cc1OC	inactive: 6.32%	
CSc1nc(SCC(=O)O)c2sc3nc(-c4ccccc4)c4c(c3c2n1)CCC4	inactive: 9.29%	
CCN1CCN(Cc2cc(=O)oc3ccc(C)cc23)CC1	inactive: -4.63%	
N#C/C(=N\Nc1ccccc1)C(=N)N1CCCCCC1	inactive: -7.48%	
COC(=O)/C=C(\C)N=Nc1c(O)[nH]c2ccccc12	inactive: -4.81%	
CC(=O)CCn1cc([N+](=O)[O-])nc1C	inactive: 3.83%	
CCOC(=O)C1=C(C)N(CC(C)C)C(=O)/C1=C\c1cccs1	inactive: -7.54%	
S=C1SCN(Cc2ccco2)CN1Cc1ccco1	inactive: -6.67%	
NC(=O)c1cccnc1Oc1ccc(Cl)cc1	inactive: -13%	
COc1ccc([N+](=O)[O-])c(S(=O)(=O)c2ccccc2)n1	inactive: -1.27%	
Cc1cnc(NS(=O)(=O)c2ccc(Cl)cc2)c(Br)c1	inactive: -7.79%	
C/C(=N\Nc1cccc(Cl)c1)C1(C)N(O)C(C)(C)C(c2ccco2)=[N+]1[O-] (centres undefined)	inactive: -5.45%	
S=c1[nH]c2cc3ccccc3cc2[nH]1	inactive: 10.7%	
Cn1cc(Br)c(NC(=O)/C=C/C(=O)O)n1	inactive: 7.54%	
CC(C)(C)c1ccc(NC(=S)NCc2cccnc2)cc1	inactive: -3.62%	
O=C(CCCCl)NC(=S)Nc1ccc(N2CCOCC2)cc1	inactive: 6.2%	
C=CCSC(CC)(CC)C(N)=O	inactive: -0.298%	

SMILES	activity, negative = inhibition	Potency
COc1cccc(C2/C(=C(/O)c3ccccc3)C(=O)C(=O)N2Cc2ccco2)c1 (centres undefined)	inactive: -6.74%	
COC(=O)c1[nH]c2cc(OC)ccc2c1NC(=O)c1c(F)cccc1F	inactive: 3.22%	
O=C(Oc1c(-c2ccccc2)c(=O)n2c3c(cccc13)CC2)c1ccco1	inactive: -3.57%	
O=C(OCC1OC(OC(=O)c2cc(O)c(O)c(OC(=O)c3cc(O)c(O)c(O)c3)c2)[C@@H](OC(=O)c2cc(O)c(O)c(OC(=O)c3cc(O)c(O)c(O)c3)c2)C(OC(=O)c2cc(O)c(O)c(OC(=O)c3cc(O)c(O)c(O)c3)c2)C1OC(=O)c1cc(O)c(O)c(OC(=O)c2cc(O)c(O)c(O)c2)c1)c1cc(O)c(O)c(OC(=O)c2cc(O)c(O)c(O)c2)c1 (some centres undefined)		active: 0.398 µM
c1cnc2ccc3ncccc3c2c1	inactive: -19.2%	
O=C(OCC(O)COC(=O)c1cccnc1)c1cccnc1	inactive: 0.481%	
COc1ccc(Nc2cc(C)nc(NCc3ccccc3)n2)cc1	inactive: -19.2%	
O=C(Nc1ccccc1)N1CCN(C2c3ccccc3-c3ccccc32)CC1	inactive: -3.73%	
CCCC(=O)Nc1ccc2c(c1)nc(CCNC(=O)c1ccco1)n2C	inactive: -9.7%	
COc1ccc(NC(=O)O/N=C/c2ccccc2Cl)cc1	inactive: -2.18%	
CCC1=NN(C(=O)Cc2ccc([N+](=O)[O-])cc2)C(O)(C(F)(F)F)C1 (centres undefined)	inactive: -5.5%	
O=C(c1cccnc1)C1Cc2ccccc2C1=O (centres undefined)	inactive: 12%	
NC(=O)c1ccc(NC(=O)COC(=O)/C=C/c2ccc3c(c2)OCO3)cc1	inactive: -5.29%	
Cc1nc(N)nc(Nc2ccc(C#N)cc2)c1Br	inactive: -2.94%	
Cc1ccc(C(=O)/C=C/N(C)C)cn1	inactive: -6.06%	
CSc1ccc(NC(=O)Nc2cc(C)ccn2)cc1	inactive: -4.53%	
CCCN1CN=C(Nc2nc3ccccc3o2)NC1	inactive: -3.71%	
Cc1[nH]n(-c2ccccc2)c(=O)c1C=Nc1cccc(F)c1	inactive: -6.77%	
COC(=O)c1sccc1S(=O)(=O)Nc1ccc(Cl)cc1	inactive: -4.96%	
C/C(Cc1ccccc1)=N\NC(=O)CNC(=O)c1ccc(Cl)cc1Cl	inactive: -21.7%	
CCC(=O)NC1(C(F)(F)F)C(=O)Nc2c1c(=O)[nH]c(=O)n2CC(C)C (centres undefined)	inactive: -5.35%	
CNS(=O)(=O)c1cc(Cl)ccc1Sc1ccccc1C(=O)O	inactive: -0.435%	
O=c1c(O)cccc2cc(O)c(O)c(O)c12		active: 447 nM and active: 631 nM

SMILES	activity, negative = inhibition	Potency
O=[N+]([O-])c1ccc(-c2cn3c(n2)CCC3)cc1	inactive: -6.5%	
CN(C(=O)C(Cl)Cl)C1CC2C=CC1C2 (centres undefined)	inactive: 4.91%	
Cc1cccc(C)c1N1C(=O)[C@@H]2C(c3ccccc3Cl)=NO[C@@H]2C1=O	inactive: -3.08%	
Cn1c2ccccc2c(=O)c2c(=O)n(Cc3ccccc3)c(-c3ccc(F)cc3)nc21	inactive: -3.32%	
CCOc1ccccc1/C=C(/C#N)C(N)=O	inactive: 2.38%	
COCc1cc(=O)n2[nH]c(C(C)(C)C)cc2n1	inactive: 5.53%	
CCc1c(C#N)sc(C(N)=O)c1CC	inactive: -3.2%	
CCCOc1ccc(C(=O)NC(=S)NNC(=O)c2c(-c3ccccc3)noc2C)cc1	inactive: -17%	
O=C(NN1C(=O)C2CCCCC2C1=O)c1ccco1 (centres undefined)	inactive: -3.88%	
NC(=O)C1CCN(c2c([N+](=O)[O-])cc(C(F)(F)F)cc2[N+](=O)[O-])CC1	inactive: -3.87%	
O=C(NCCC(=O)N1CCOCCOCCOCCOCC1)OCc1ccccc1	inactive: -6.47%	
Cc1cc(=O)[nH]c2c1c(-c1ccccc1)nn2C	inactive: -3.66%	
C=CCn1c(SCc2n[nH]c(=S)n2-c2ccccc2)nnc1-c1ccccc1	inactive: -1.11%	
Clc1ccc(-c2nnc(N3CCOCC3)o2)cc1	inactive: -2.32%	
Cc1ccc(C)c(-n2c(-c3ccc(Br)cc3)csc2=NC(=O)c2ccccc2F)c1	inactive: 7.68%	
Cn1nc(-c2ccccc2)cc1NS(=O)(=O)c1ccc(C#N)cc1	inactive: -2%	
CCCn1nnc(NC(=O)c2ccc3c(c2)OCO3)n1	inactive: 4.12%	
Cn1cccc1/C=C(\C#N)C(N)=S	inactive: -1.76%	
C/C(Cc1ccccc1)=N\NC(=O)CNC(=O)COc1cccc(C)c1	inactive: -6.91%	
COC(=O)C1=C(N)Oc2c(oc(CO)cc2=O)C1c1ccc(F)cc1 (centres undefined)	inactive: -11.5%	
O=C(O)c1cc(NN=C2CCN(Cc3ccccc3)CC2)ccc1Cl	inactive: -7.68%	
Cc1ccc(C)c(C(=O)CCC(=O)O)c1	inactive: -2.23%	
c1ccc(-c2nnc(N3CCN(c4ccccc4)CC3)nc2-c2ccccc2)cc1	inactive: -7.28%	

SMILES	activity, negative = inhibition	Potency
O=C(Nc1ccc(Nc2ccncc2)cc1)c1ccc(Nc2ccnc3ccc([N+](=O)[O-])cc23)cc1	inactive: 2.04%	
Cc1ccccc1NC(=S)Nc1ccccn1	inactive: 1.57%	
CCc1c(-c2ccccc2)[n+](=O)c2c(n1[O-])CCC2	inactive: -0.602%	
CC(C)(C)c1cc(NCc2ccccn2)n2ncc(-c3ccc(Cl)cc3)c2n1	inactive: -4.6%	
CCOC(=O)C(=CNc1cccnc1Oc1ccc(C)c2c1CCC2)C(=O)OCC	inactive: 0.499%	
CC(=O)NCC(=O)N[C@@H](CC(=O)OCc1ccccc1)C(=O)OCc1ccccc1 (Ac-Gly-Asp(OBn)-OBn)	inactive: 0.629%	
CCC(=O)N1N=C(c2ccc(C)cc2)CC1c1ccco1 (centres undefined)	inactive: -5.68%	
COc1ccc(-c2c[n+]3c(n2-c2ccc(C)cc2)CCCCC3)cc1	inactive: 3.98%	
O=C(O)COCC(=O)N1CCN(C2c3ccccc3-c3ccccc32)CC1	inactive: -2.67%	
CCOc1ccc(N2C(=O)S/C(=C\c3cc(OC)c(OC)c(OC)c3)C2=O)cc1	inactive: 3.75%	
COc1c(NC(C)=O)c2ccccc2c2ccccc12	inactive: -0.619%	
N#CC(C(=O)c1ccccc1Cl)=C1SCCCS1	inactive: 2.29%	
O=C1CCN(S(=O)(=O)c2ccc(Cl)cc2)CCN1	inactive: 2.7%	
[O-]/[N+](=C\C=C\c1ccccc1)c1ccccc1	inactive: 0.917%	
O=C1CCCN1CCCNC(=S)Nc1ccccc1	inactive: -7.84%	
CCCOc1ccc(-c2nc(-c3ccc([N+](=O)[O-])cc3)cs2)cc1	inactive: -3.28%	
CCOc1nc2c(c(-c3cccs3)c1C#N)Cc1ccccc1-2	inactive: -0.648%	
Nc1nc(Nc2ccccc2)nc(NCCO)c1[N+](=O)[O-]	inactive: -6.03%	
COc1ccccc1Cc1nc(-c2cccnc2)no1	inactive: -20.2%	
CC(C)(C)c1cc2nc(N)nc(N)n2n1	inactive: 5.32%	
Cc1onc(-c2c(F)cccc2Cl)c1C(O)c1ccc(F)cc1 (centres undefined)	inactive: 7.39%	
CC(=O)c1sc(C(C)(C)C)cc1NC(=O)CCC(=O)O	inactive: 3.13%	
